Data reported in PubChem BioAssay AID1030 (National Center for Advancing Translational Sciences (NCATS), 2008).
About 16,000 (7.3%) of roughly 220,000 compounds were called active. Inconclusive results, whose numbers are uncertain, are shown with a selection of clear calls. The call rests on the fitted dose curve; in most records, active means well fitted inhibition curve with a large enough effect (not every such curve was filed as active); inconclusive means small, poorly fitted or top-dose-only effect, or another doubt; inactive means no such curve, though single readings can be large or run the other way. Potencies of inconclusive entries are left out as doubtful fits.
Potency means the concentration at half of the fitted maximal effect; tags describe the fitted curve by direction and shape.
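Wherever activity, negative = inhibition is given: plate controls were no enzyme wells and a reference inhibitor.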

The compounds below were run against Aldehyde dehydrogenase 1A1 (Homo sapiens) (UniProt P00352) (assay: qHTS Assay for Inhibitors of Aldehyde Dehydrogenase 1 (ALDH1A1)). Conditions: Purified ALDH1A1, NADH fluorescence, propionaldehyde substrate; series mostly up to 75.3 µM; activity, negative = inhibition: at the top concentration.
Sequence of UniProt P00352 (P00352 whole entry, looked up): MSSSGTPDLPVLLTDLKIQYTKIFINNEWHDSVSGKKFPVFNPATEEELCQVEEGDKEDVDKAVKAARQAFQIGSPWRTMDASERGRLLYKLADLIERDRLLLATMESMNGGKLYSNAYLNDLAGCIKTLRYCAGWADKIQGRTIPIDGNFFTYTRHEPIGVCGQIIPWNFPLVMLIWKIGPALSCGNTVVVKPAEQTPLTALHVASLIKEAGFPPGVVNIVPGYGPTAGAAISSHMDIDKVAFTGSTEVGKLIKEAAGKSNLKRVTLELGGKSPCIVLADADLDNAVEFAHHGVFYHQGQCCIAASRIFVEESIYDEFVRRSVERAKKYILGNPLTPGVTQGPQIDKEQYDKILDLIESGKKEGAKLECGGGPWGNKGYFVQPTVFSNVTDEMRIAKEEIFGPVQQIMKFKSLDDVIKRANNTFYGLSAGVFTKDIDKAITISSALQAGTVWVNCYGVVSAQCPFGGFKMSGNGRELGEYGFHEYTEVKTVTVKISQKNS
With `Cc1n[nH]c(=O)n1-c1ccc(OCc2ccccc2)cc1` the “activity, negative = inhibition” value was inactive: -0.298%. For `S=C(Nc1ccc(Br)cc1)NC1CCCCC1`, the “activity, negative = inhibition” value was inactive: 1.95%. `COc1ccc2c(c1)N(C(=O)CN1C(=O)C3CCCCC3C1=O)C(C)(C)C=C2C` (stereo not drawn) was tested, and the Potency was inconclusive [inhibitor, partial curve]. In the case of `CC(C)c1ccc(NC(=O)c2snc3ccc(Cl)cc23)cc1`, the “activity, negative = inhibition” value is reported as inactive: -29.3%. For `COC(=O)[C@H]1C[C@@H]1[C@H](NS(=O)(=O)c1ccccc1)c1ccccc1`, the Potency was “inactive”. In the case of `CN(Cc1ccccc1)S(=O)(=O)c1ccc(NC(=S)NC(=O)C2CCCC2)cc1`, the Potency is reported as inconclusive [inhibitor, single point]. `O=C(O)c1ccc(N2Cc3ccccc3C2)cc1O` was tested, and the Potency was active: 28.2 µM. `Cc1nn(CCCC(=O)Nc2cc(Oc3ccccc3)cc([N+](=O)[O-])c2)c(C)c1[N+](=O)[O-]` was tested, and the Potency was inconclusive [inhibitor, single point]. For `CC(NS(=O)(=O)c1ccc(CCC(=O)N2CCN(C)CC2)cc1)c1ccccc1` (stereo not drawn), the “activity, negative = inhibition” value was inactive: 7.58%. For `O=C(O)COc1ccccc1C(Nc1ccccn1)c1cc(Cl)c2cccnc2c1O` (stereo not drawn), the “activity, negative = inhibition” value was inactive: 2.4%. In the case of `O=C1Nc2ccccc2Oc2cc([N+](=O)[O-])ccc21`, the Potency is reported as inconclusive [inhibitor, single point]. For `COc1cc(/C=C/C(=O)OC(C)C(=O)Nc2c(C)n(C)n(-c3ccccc3)c2=O)ccc1OCC#N` (stereo not drawn), the Potency was inconclusive [inhibitor, single point]. In the case of `O=C(Nc1ccc2c(c1)OCCO2)c1cc(-c2ccccn2)nc2ccc(Br)cc12`, the “activity, negative = inhibition” value is reported as inactive: 5%. `COc1cc(C2C=C(Nc3ccccc3)C(=O)N2c2ccccc2)ccc1O` (stereo not drawn) was tested, and the Potency was inconclusive [inhibitor, full curve]. `CC1=CC(C)=Nc2ccc(C)cc2N1` was tested, and the Potency was “inactive”. `CN(C)[C@H]1C(=O)C(C(=O)NCN2CCCC2)=C(O)[C@]2(O)C(=O)C3=C(O)c4c(O)cccc4[C@](C)(O)[C@H]3C[C@H]12` was tested, and the activity, negative = inhibition was inactive: 13.5% [at 13.5 µM]. With `CC(=O)C(=Nc1ccccc1Cl)NNc1ccc(Cl)cc1` the Potency was inconclusive [inhibitor, partial curve, poor fit]. For `Cc1ccc(C)c(-n2nnnc2Sc2nnnn2-c2ccccc2)c1`, the Potency was active: 22.4 µM. `O=S(=O)(c1cc(Cl)ccc1Cl)N1CCCCC1` was tested, and the “activity, negative = inhibition” value was inactive: -0.29%. `Cc1cc(C)n(C(=O)/C(C#N)=N/Nc2cc(Cl)cc(Cl)c2)n1` was tested, and the “activity, negative = inhibition” value was inactive: -3.55%. In the case of `CSc1nc2n(n1)C(c1ccccn1)C1=C(CC(C)(C)CC1=O)N2` (stereo not drawn), the Potency is reported as inconclusive [inhibitor, partial curve]. In the case of `O=C(c1cccc(S(=O)(=O)Nc2ccccc2F)c1)N1CCN(c2ccccc2F)CC1`, the Potency is reported as inconclusive [inhibitor, single point]. With `CCN(CC)c1ccc(NC(=O)C2=CCN(S(=O)(=O)c3ccc(F)cc3)CC2)c(C)c1` the Potency was inconclusive [inhibitor, single point]. In the case of `[O-]/[N+](=C\c1ccccc1)[C@@H]1CCCC[C@@H]1/[N+]([O-])=C/c1ccccc1`, the “activity, negative = inhibition” value is reported as inactive: 1.01%. In the case of `Cc1ccc2c(c1)-c1c(cnn1CC(=O)N(CCC#N)c1ccccc1)CO2`, the Potency is reported as inconclusive [inhibitor, single point]. With `COc1c(C)cc(S(=O)(=O)N2CCCC2)c(C)c1C` the Potency was inconclusive [inhibitor, partial curve]. With `Cc1cc(N/C=C\c2nnnn2-c2ccccc2)no1` the Potency was inconclusive [inhibitor, partial curve]. `C=C(C)CNC(=S)N=Nc1c(O)[nH]c2ccc([N+](=O)[O-])cc12` was tested, and the “activity, negative = inhibition” value was inactive: -6.78%. In the case of `COc1cccc(Cn2c(=O)c(-c3cc(F)cc(F)c3)nc3cnc(N4CCN(C)CC4)nc32)c1`, the Potency is reported as inconclusive [inhibitor, partial curve, poor fit]. `Cc1cc(C(=O)COC(=O)c2cc(Cl)ccc2N)c(C)n1Cc1ccco1` was tested, and the Potency was inconclusive [inhibitor, partial curve]. With `CCOC(=O)c1c(C)cc(C)[nH]c1=O` the Potency was inconclusive [inhibitor, single point]. For `O=[N+]([O-])c1ccccc1S(=O)(=O)NCCC1=CCCCC1`, the Potency was inconclusive [inhibitor, single point]. With `Cc1ccc(N2NC(=O)/C(=C/C=C/c3ccco3)C2=O)cc1C` the Potency was inconclusive [inhibitor, single point]. `CN(NC1OC(=O)c2ccccc21)c1ccccc1[N+](=O)[O-]` (stereo not drawn) was tested, and the “activity, negative = inhibition” value was inactive: 7.2%. `CC(C)CN1CCNC(=O)C1CC(=O)NCCc1ccc(C(F)(F)F)cc1` (stereo not drawn) was tested, and the Potency was inconclusive [inhibitor, partial curve]. For `CC1(C)CC(=O)C(C=Nc2cccnc2/N=C/C2=C(O)CC(C)(C)CC2=O)=C(O)C1`, the Potency was active: 2.24 µM. `CN(C(=O)COC(=O)c1cnc(Cl)c(Cl)c1)C1CCS(=O)(=O)C1` (stereo not drawn) was tested, and the Potency was inconclusive [inhibitor, single point]. With `Nc1n[nH]c(=S)n1/N=C1/C(=O)Nc2ccccc21` the Potency was active: 7.94 µM. With `CCc1ccc(NC(=O)Nc2ccc3c(c2)N(C)C(=O)CS3)cc1` the “activity, negative = inhibition” value was inactive: -18%. For `Cc1cc(C)n(CC(O)Cn2c3ccccc3c3ccccc32)n1` (stereo not drawn), the Potency was inconclusive [inhibitor, single point]. In the case of `CC(=O)Nc1ccc(S(=O)(=O)Oc2ccc(/C=N/N=C3/NC(=O)C(CC(=O)O)S3)cc2)cc1` (stereo not drawn), the “activity, negative = inhibition” value is reported as inactive: 1.77%. In the case of `COc1ccc(-c2cc3nc4n(c(=O)c3s2)CCCCC4)cc1`, the Potency is reported as inconclusive [inhibitor, partial curve]. For `Cc1ccc(-c2nc(CN(C)C3CCOCC3)c(C)o2)s1`, the Potency was inconclusive [inhibitor, single point]. For `CCS(=O)(=O)c1ccc2oc(=O)c(/C=C(\O)c3ccc(Cl)cc3)nc2c1`, the Potency was inconclusive [inhibitor, full curve]. In the case of `CC(C)Oc1ccc2c(=O)cc(-c3ccccc3)oc2c1`, the “activity, negative = inhibition” value is reported as inactive: -10.2%. With `COc1ccc(C(=O)/C=C(\C)NCc2ccc3c(c2)OCO3)cc1` the Potency was inconclusive [inhibitor, single point]. `Cc1ccc(C(=O)NNC(=O)CSc2nnc(-c3ccccc3)n2Cc2ccccc2)cc1` was tested, and the “activity, negative = inhibition” value was inactive: -4.21%. `COc1ccc(Br)cc1C1N2CC3(C)CN1CC(C)(C2)C3=O` (stereo not drawn) was tested, and the Potency was inconclusive [inhibitor, single point]. `O=c1cc(-c2cccc(O)c2)oc2ccc(O)cc12` was tested, and the Potency was inconclusive [inhibitor, single point]. `CCOC(=O)N1CCc2[nH]c3ccc(C)cc3c2C1` was tested, and the “activity, negative = inhibition” value was inactive: -1.73%. `CC1CCN(C(=S)Nc2cccc(S(=O)(=O)N(C)C)c2)CC1` was tested, and the Potency was inconclusive [inhibitor, partial curve]. In the case of `O=C(CCCOc1ccccc1)N1CCN(C(=O)c2ccco2)CC1`, the Potency is reported as inconclusive [inhibitor, single point]. For `O=C(O)c1ccc(/C=N/Nc2nnnn2-c2ccccc2)cc1`, the Potency was inconclusive [inhibitor, single point]. In the case of `O=C(N/N=C/c1sc(=O)n(-c2ccccc2)c1Cl)c1ccncc1`, the Potency is reported as active: 10 µM. `OC/C=C/c1ccc(O)c(O)c1` was tested, and the Potency was inconclusive [inhibitor, single point]. With `Cc1[nH]c2ccccc2c1C(=O)COc1ccccc1F` the Potency was inconclusive [inhibitor, single point]. `O=C(NCCCN1CCOCC1)c1cc2c(s1)CCC2` was tested, and the Potency was inconclusive [inhibitor, partial curve]. `c1ccc(-n2ncc3c2ncn2nc(-c4ccco4)nc32)cc1` was tested, and the Potency was inconclusive [inhibitor, partial curve]. In the case of `CCN(Cc1cc2cc(OC)ccc2[nH]c1=O)C(=O)Cc1ccc(OC)cc1`, the Potency is reported as inconclusive [inhibitor, partial curve]. In the case of `O=C(NCCCN1CCN(c2cccc(Cl)c2)CC1)C1CCC(=O)N1Cc1ccccc1Cl` (stereo not drawn), the Potency is reported as inconclusive [inhibitor, single point]. For `Nc1nc(SCC(=O)NCCCN2CCOCC2)nc2sc3c(c12)CCC3`, the Potency was inconclusive [inhibitor, single point]. In the case of `CCN(CC)c1nc2c3c(nc4c(c3c1C#N)CC(=O)N4c1ccc(Cl)cc1)NC(C)=N2`, the Potency is reported as inconclusive [inhibitor, partial curve]. In the case of `O=C(N/N=C\c1c(O)ccc2ccccc12)c1ccc(Cn2cccn2)o1`, the “activity, negative = inhibition” value is reported as inactive: 14.8%. `Cn1c2ccccc2c2ncn(CCCN3CCOCC3)c(=O)c21` was tested, and the Potency was inconclusive [inhibitor, partial curve]. In the case of `CC(=O)N(c1nc(CCl)cs1)c1cccc(C)c1C`, the Potency is reported as inconclusive [inhibitor, single point]. For `COc1cccc(Cn2c(Oc3ccccc3)nc3c2c(=O)n(C)c(=O)n3C)c1`, the Potency was active: 0.251 µM. For `CC1CCN(C(=O)CSCc2ccc(Cl)cc2)CC1`, the “activity, negative = inhibition” value was inactive: 2.63%. With `CCOC(=O)CSC1=N/C(=C/c2ccc(-n3cncn3)cc2)C(=O)N1C(C)=O` the “activity, negative = inhibition” value was inactive: 7.89%. In the case of `O=C(c1ccc(F)cc1)c1ccc(N2CCCC2)cc1`, the Potency is reported as active: 20 µM. For `C=CCn1c(=S)[nH]c2ccc(Br)cc2c1=O`, the Potency was inconclusive [inhibitor, partial curve]. With `COc1ccc(OC)c(C(c2nnnn2C(C)(C)C)N2CCc3ccccc3C2)c1` (stereo not drawn) the “activity, negative = inhibition” value was inactive: -4.68%. For `COCCCNC(=S)N/N=C/c1ccccc1O`, the Potency was inconclusive [inhibitor, single point]. With `CC(=O)OC1CC2C(C)(C)C(=O)[C@@H]3OC3[C@@]2(C)C2CC[C@]3(C)C(=CC(=O)OC3c3ccoc3)[C@]12C` (stereo partly drawn) the “activity, negative = inhibition” value was inactive: -1.76%.
